Among the data in ChEMBL document CHEMBL1157539, “Thousands of chemical starting points for antimalarial lead identification” (Nature, 2010) are IFI values, retold here.

Where “and” joins values, the source holds several entries; their conditions need not be identical. Identical values can stand only once. Whole data set: some 13,000 compounds, median “IFI” near 4, cut for the highest 2% near 17. The list shows a part of the results.

The assay can be described thus: GSK_TCMDC: Inhibition Frequency Index (IFI). The number of non-kinase HTS assays where a compound showed > 50 % inhibition, expressed as a percentage of the number of such assays in which the compound was tested (-0 is zero). In kind it is functional.
The molecule `Cc1ccc(S(=O)(=O)n2nccc2-c2c(-c3ccc(Cl)cc3)noc2C)cc1` came in with an IFI of 1.75%.

`Clc1ccc(-c2ccc(CNCCCN3CCCC3)cc2)cc1` yielded an IFI of 1.43%.

`Cc1ccc(C)c(NC(=O)Nc2ccc(Nc3nc(C)cc(N4CCOCC4)n3)cc2)c1` showed an IFI of 7.32%.

`CC(C)(CNCc1ccc(C(F)(F)F)cc1)c1nc(-c2ccc(Cl)c(O)c2)c(-c2ccncc2)[nH]1`: the IFI worked out at 7.3%.

In turn, `CCCCCCN1CCCN(Cc2cccc(NC(=O)c3cc4ccccc4s3)c2)CC1` showed an IFI of 10.2%.

`COCCN(C)CCCOc1cc2c(cc1OC)ncn2-c1cc(OCc2ccccc2C(F)(F)F)c(C(N)=O)s1` returned an IFI of 9.22%.

`O=C(Nc1ccc(-c2ccc(CN3CCNCC3)cc2)cc1)c1cccc(Cl)c1`: the IFI came to 12.1%.

With `COc1cc(Cc2cnc(N)nc2N)cc(OCC(C)(C)C(=O)O)c1OC`, the IFI amounted to 0.72%.

For `CC(CCCCC(=O)Nc1ccc(CC(C)NCCc2cccc(Cl)c2)cc1)NCCc1cccc(Cl)c1` (stereo not given), the IFI came to 4.29%.

Molecule `Cc1cc(NCC(c2ccccc2)c2ccccc2)nc(NCC2CCCCC2)n1` showed an IFI of 16%.

For `CN(c1ccc(NC(=O)Nc2cccc(Cl)c2)cc1)c1ccnc(N)n1`, the IFI came out at 6.9%.

Molecule `CCc1cn2c3c(cc(C(=O)N[C@@H](Cc4ccccc4)[C@H](O)CNC(C)C)cc13)N(C)S(=O)(=O)C2` yielded an IFI of 2.11%.

As for `CCc1ccc(CN2CCC(NC(=O)c3cc(-c4ccc(N(C)C)cc4)cs3)C2)cc1` (stereo not given), the IFI is 10.2%.

`Cc1cc(N)c2cc(NC(=O)/C=C/c3ccccc3Cl)ccc2n1` yielded an IFI of 10.3%.

For `COc1cccc(OC)c1CN1CCC(N(C)CCCCCCCCCN2CCC(OC(=O)Nc3ccccc3-c3ccccc3)CC2)CC1`, the IFI was determined as 17.3%.

With `N#Cc1ccc2c(c1)CCN(CCC1CCC(NC(=O)c3ccc(-c4ccccc4)s3)CC1)CC2` (stereo not given), the IFI was 0.72%.

Turning to `CCCN1CCN(c2cc(NCC)c3c4c(onc24)-c2ccccc2C3=O)CC1`, the IFI was 1.41%.

Consider `CN1CCN(Cc2ccc(-c3ccc4c(Nc5ccc(Oc6ccccc6)cc5)ccnc4c3)o2)CC1`, for which the IFI is 13%.

For `Cc1cccc2nc(-c3ccc(-c4cccc(NC(=O)CCc5c[nH]cn5)c4)cc3)[nH]c12`, the IFI is 2.61%.

Consider `c1cc(CNCC2CCCO2)cc(-c2ccc(-c3nc4ccccc4[nH]3)s2)c1` (stereo not given), for which the IFI came out at 2.94%.

In turn, `CC(=O)OC[C@H]1O[C@@H](C#Cc2ccccc2)[C@H](OC(C)=O)[C@@H](OC(C)=O)[C@@H]1OC(C)=O` showed an IFI of 3.55%.

`Fc1ccc2[nH]c(-c3ccc(-c4ccc(CNCCc5ccncc5)cc4)s3)nc2c1`: the IFI worked out at 11.9%.

Molecule `N#Cc1ccc(N2CCN(Cc3cccc(-c4ccc(-c5nc6ccccc6[nH]5)cc4)c3)CC2)nc1` returned an IFI of 13.7%.

In the case of `Cc1nc(C)c(-c2ccc(Br)cc2)c(O)c1Br`, the IFI was -0%.

For `COc1ccc(S(=O)(=O)N(CC(=O)NN=C(C)c2cccs2)c2cc(C)cc(C)c2)cc1OC`, the IFI is -0%.

On to `COc1ccc(CN(C)C(=O)CCNS(=O)(=O)c2ccc3c(c2)OCCCO3)cc1F`, for which the IFI amounted to 0%.

Regarding `CNC(=S)NCc1cnc2ccccn12`, the IFI was 0.71%.

Consider `Cc1noc(C)c1-c1ccc2c(Nc3ccccc3C(C)(C)C)c(C(=O)NCc3cccc4ccccc34)cnc2c1`, for which the IFI is -0%.

Consider `Cc1ccc(-c2noc(COc3ccccc3C(=O)NC3CCCC3)n2)cc1`, for which the IFI was found to be 2.33%.

`c1ccc(CNc2nc(NCCN3CCCCC3)nc3ccccc23)cc1` displayed an IFI of 0%.

Regarding `c1cc(CNCC2CCCO2)cc(-c2csc(-c3nc4ccccc4[nH]3)c2)c1` (stereo not given), the IFI was 1%.

`COc1cccc(C(=O)NC(NC(=S)Nc2ccc(OC)cc2[N+](=O)[O-])C(Cl)(Cl)Cl)c1` (stereo not given) registered an IFI of 1.47%.

In turn, `c1cc(Nc2nccc(-c3cnn4ncccc34)n2)cc(-c2cnco2)c1` returned an IFI of 9.23%.

Turning to `COc1cccc(CCN(Cc2ccccc2-c2ccc(CNC3CC(C)(C)NC(C)(C)C3)cc2)C(=O)NC2CCCCC2)c1`, the IFI came out at 12.9%.

Take `Cc1cc(=NN=Cc2cccc(F)c2)c2cc(F)ccc2[nH]1`: the IFI amounted to 1.46%.

Consider `Cc1cccc2nc(-c3ccc(-c4cccc(CN5CCC(CCN6CCCCC6)CC5)c4)s3)[nH]c12`, for which the IFI stood at 7.04%.

In the case of `Cc1ccc2nc(C)cc(N/N=C/c3ccccc3[N+](=O)[O-])c2c1`, the IFI amounted to 4.35%.

Turning to `CCNc1cc(C)nc(Nc2ccc(NS(=O)(=O)c3ccccc3)cc2)n1`, the IFI turned out to be 20.4%.

For the molecule `CCNc1cc(-c2cccc(OC)c2)nc(Nc2ccc(F)cc2)n1`, the IFI came out at 2.82%.

`c1cc(CNCCc2ccncc2)cc(-c2ccc(-c3nc4ccccc4[nH]3)s2)c1` had an IFI of 2.02%.

In turn, `O=C(Nc1ccc(-c2nc3ccccc3[nH]2)cc1)c1ccc(Cl)c([N+](=O)[O-])c1` showed an IFI of 2.31%.

For `CN(C)CCN(C)Cc1ccc(-c2ccc3c(Nc4ccc(Oc5ccccc5)cc4)ccnc3c2)o1`, the IFI was 14.9%.

With `Cc1cc(N[C@@H](Cc2ccccc2)C(=O)NCCCOC(C)C)nc(NCC2CCCCC2)n1`, the IFI came out at 4.88%.

Turning to `Cc1cc(C)c(-c2n[nH]c3c2C(c2cccc(Cl)c2)N(Cc2ccco2)C3=O)c(O)c1` (stereo not given), the IFI came to 13%.

`CC(C)c1sc(N2CCN(C)CC2)nc1C(=O)Nc1ccc(F)cc1C(F)(F)F` showed an IFI of 5.77%.

`c1ccc2c(c1)CN(Cc1ccsc1)CC1(CCN(Cc3c[nH]c4cnccc34)CC1)O2` gave an IFI of 3.17%.

Molecule `Cn1cnc(CCNC(=O)c2ccc(-c3ccc(-c4nc5cc(C(F)(F)F)ccc5[nH]4)s3)cc2)c1` gave an IFI of 3.81%.

In turn, `Cc1nnc2c(NC(=O)NC3CCCC3)cc3ccc(-c4cccc(CN5CCN(C)CC5)c4)cc3n12` yielded an IFI of 8.33%.

Turning to `COCCNCc1ccc(-c2cccc(CNc3ccc(OC)cc3)c2)cc1`, the IFI was determined as 0.73%.

With `Nc1nc(N)c2c(Cc3ccccc3)cccc2n1`, the IFI was found to be 5.88%.

In the case of `CC(C)(C)CC(C)(C)c1ccc(O)c(C(=O)Nc2cccc([N+](=O)[O-])c2)c1`, the IFI stood at 12.9%.

In the case of `CCc1cc(C(=O)c2cccc(C)c2)c(NC(=O)CN2CCN(C(=O)c3ccco3)CC2)s1`, the IFI was 1.44%.

Turning to `COc1cccc(Nc2nccc(NCC(O)c3ccc(C(F)(F)F)cc3)n2)c1` (stereo not given), the IFI was 7.77%.

Molecule `CCOc1cc(Cc2cnc(N)nc2N)ccc1OC` gave an IFI of 2.92%.

Consider `N#Cc1ccc2c(c1)CCN(CCC1CCC(NC(=O)Nc3cnc4ccccc4c3)CC1)C2` (stereo not given), for which the IFI is 2.33%.

In the case of `Cc1ccc([S+]([O-])Cc2ccc(Cl)cc2)cc1` (stereo not given), the IFI was -0%.

`COc1ccc(-c2cc(C(=O)N[C@@H](CC3CCCCC3)C(=O)NCCN3CCCC3)ccc2O)cc1` yielded an IFI of 3.45%.

For the molecule `COc1cc(Cc2cnc(N)nc2N)cc(OC)c1OC`, the IFI worked out at 2.26%.

On to `COc1ccccc1CCN(C)CCN1CCC(NC(=O)c2ccc(-c3ccc(C(F)(F)F)cc3)cc2)CC1`, for which the IFI is 6.19%.

`CCNc1cc(C(=O)N[C@@H](Cc2ccccc2)[C@H](O)CNC(C)CC(C)C)c(F)c(N2CCCCS2(=O)=O)c1` (stereo not given in full) yielded an IFI of 0.7%.

In the case of `O=C(Nc1cccc(CN2CCN(Cc3cccc(O)c3)CC2)c1)c1cc2ccccc2s1`, the IFI was 2.8%.

With `CC(C)N1CCC(N(Cc2ccc(-c3ccc(C(F)(F)F)cc3)cc2)C(=O)Cn2c(CCc3cccc(F)c3F)cc(=O)c3ccccc32)CC1`, the IFI came out at 6.43%.

Molecule `CC(CN1CCN(C)CC1)C(=O)Nc1ccc(-c2ccc(-c3nc4cc(F)ccc4[nH]3)cc2)cc1` (stereo not given) displayed an IFI of 4.35%.

`CN1CCC(NCc2ccc(S(=O)(=O)Nc3ccc(Oc4cccc(Cl)c4)cc3)cc2)CC1` returned an IFI of 11.2%.

Take `Cc1cnc(C(=O)Nc2cccc(-c3cccc(-c4nc5cccc(C)c5[nH]4)c3)c2)cn1`: the IFI worked out at 1.79%.

`Cc1cc(C)c2cc(CNCCCNc3nc4ccccc4[nH]3)[nH]c2c1` yielded an IFI of 7.04%.

In the case of `CC(C)CCN1CCC(Oc2ccc(NC(=O)c3ccc(F)cc3)cc2Cl)CC1`, the IFI amounted to 6.45%.

In turn, `Nc1nc(N)c2c(CCc3ccc4ccccc4c3)cccc2n1` registered an IFI of 7.53%.

The molecule `CS(=O)(=O)NCCCNCc1ccc(-c2ccc(-c3nc4cc(C(F)(F)F)ccc4[nH]3)s2)cc1` returned an IFI of 4.95%.

`c1ccc2c(c1)CN(Cc1cc3ccccc3[nH]1)CC1(CCN(Cc3c[nH]c4cnccc34)CC1)O2` registered an IFI of 11.1%.

Molecule `COc1cc(C(=O)Nc2nc3ccccc3[nH]2)ccc1OCC(=O)Nc1cccc(C(F)(F)F)c1` came in with an IFI of 4.04%.

Take `CN1CCC(N2CCN(Cc3cccc(-c4ccc(-c5nc6ccccc6[nH]5)cc4)c3)CC2)CC1`: the IFI is 5.63%.

Molecule `Brc1ccc(Nc2ccnc3cc(-c4nccs4)ccc23)cc1Oc1ccnc2cc(-c3nccs3)ccc12` yielded an IFI of 3.52%.

`CN1CCC(NCc2ccc(-c3cccc(S(=O)(=O)NCC4CCCO4)c3)cc2)CC1` (stereo not given) displayed an IFI of 1.94%.

`O=C1CSc2ccc(CNC3CCN(CCc4c(Cl)cnc5ccc(Cl)cc45)CC3)nc2N1`: the IFI was 2.31%.

Turning to `CCC(CC(NCCCCNC(=O)c1ccc(NC(=O)c2ccc(Cl)cc2)cc1)c1ccccc1)c1ccccc1OC` (stereo not given), the IFI was 7.35% and 1.48%.

Molecule `O=S(=O)(Nc1ccc(CCN2CCC(N3CCCCC3)CC2)cc1)c1ccc(Cl)cc1` had an IFI of 4.84%.

In turn, `COc1ccc2[nH]c(C)cc(=NN=Cc3ccccc3)c2c1` returned an IFI of -0%.

`CC(C)(C)c1ccc(OCCCON2C(N)=NC(N)=NC2(C)C)cc1`: the IFI amounted to 18.1%.

`O=C(NCCc1ccccc1)N(Cc1ccccc1-c1ccc(CNCCc2ccccc2)cc1)C1CCN(Cc2ccccc2)CC1` came in with an IFI of 7.86%.

`CN(c1ccc(NC(=O)Nc2cc(C(C)(C)C)on2)cc1)c1ccnc(NCCN2CCOCC2)n1`: the IFI is 10.3%.

The molecule `c1ccc(Oc2ccc(Nc3ccnc(Nc4cccc(CNCCCN5CCOCC5)c4)n3)cc2)cc1` had an IFI of 7.41%.

`CC(=O)Nc1cccc(C(=O)Nc2cccc(-c3ccc(-c4nc5cccc(C)c5[nH]4)s3)c2)c1` registered an IFI of 7.41%.

`O=C(CCCCCNC(=O)c1ccc(O)c(-c2ccc(Cl)c(Cl)c2)c1)NCc1cccc(C(F)(F)F)c1`: the IFI was 2.94%.

Regarding `O=C(/C=C/c1ccc(-c2nc3ccc(Cl)cc3[nH]2)cc1)NCc1cccc(F)c1`, the IFI was 5.07%.

`CCOc1cc(C(=O)NC2CCN(Cc3ccccc3)CC2)ccc1-c1nc2cc(Cl)c(F)cc2[nH]1` displayed an IFI of -0%.

Turning to `O=C(NC1CCN(CCN2CCC(c3cn(CCO)c4ccccc34)CC2)CC1)c1ccc(-c2ccc(C(F)(F)F)cc2)cc1`, the IFI was determined as 4.63%.

Turning to `CCOc1ccc(CNCCCCCCNCc2ccc(OCC)c3ccccc23)c2ccccc12`, the IFI is 15.4%.

For the molecule `Nc1ccc(-c2nc3c(ccc4ccccc43)[nH]2)cc1`, the IFI was 3.51%.

In the case of `O=c1cc(NCCCNCc2scc(I)c2I)[nH]c2ccccc12`, the IFI is 5%.
